# Reference: PubChem BioAssay AID1345082 (National Center for Advancing Translational Sciences (NCATS), 2018)
# The campaign covered roughly 94,000 compounds. About 4,000 (4.3%) were called active. The shares of active, inactive and inconclusive entries below differ from those in the screen. Calls come from the whole dose curve; as a rule, active = well fitted inhibition curve with a large enough effect; inconclusive = small, poorly fitted or top-dose-only effect; inactive = no such curve, though single readings can be large or run the other way. A potency beside an inconclusive call is a rough fit, not a confirmed value.
# Assay: Cytotoxic Profiling in NIH 3T3 Cell Line of Diverse Libraries Using Quantitative High-Throughput Screening; note: nearly all actives have a fitted effect of over 55% in size
# Conditions: NIH 3T3 viability, CellTiter-Glo ATP luminescence, 48-72 h; activity change, negative = cytotoxicity: at 96.7 µM (top of the series); series mostly up to 96.7 µM
# Method in brief: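 Cytotoxicity was measured by CellTiter-Glo ATP luminescence after 48 or 72 h compound exposure at 37 °C. Mouse NIH 3T3 fibroblasts were seeded at 400 cells/well and dosed by 23 nL pin transfer.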
# % is set by controls: 0 for no effect and ±100 for the full control effect; potency is the fitted concentration of half-maximal effect; tags give direction and shape of the fitted curve.
Compound,Potency,outcome,"activity change, negative = cytotoxicity"
COCCn1c(=O)c2c(n1Cc1ccccc1)CN(C(=O)COc1ccccc1)CC2,active: 22.4 µM,,
CN1C(=O)CO[C@H](c2ccc(NC(=O)NC(C)(C)C)cc2)[C@H]1CO,"inconclusive: 126 µM [inhibitor, partial curve, poor fit]",,
O=C1NC2(CCCN(C(=O)c3ccccc3)C2)COc2ccccc21 (stereo not drawn),"inconclusive: 50.1 µM [inhibitor, partial curve, poor fit]",,
COc1ccccc1OCCNC(=O)C1CCN(C(=O)N2CC3CC(C2)[C@H]2CCCC(=O)N2C3)CC1 (stereo partly drawn),,inactive,
CC(C)CC(=O)N1CCC2(CC1)CC(Cc1cccc(F)c1)CCO2 (stereo not drawn),"inconclusive: 44.7 µM [inhibitor, partial curve, poor fit]",,
COC[C@H]1CCCN1Cc1nc(C2(O)CCN(C(=O)Nc3ccc(F)cc3)CC2)cs1,"inconclusive: 70.8 µM [inhibitor, partial curve, poor fit]",,
COc1ccc(OC)c(CN2C[C@H]3[C@H](C2)[S+](=O)([O-])C(C)(C)C(=O)N3CC2CCOCC2)c1,"inconclusive: 70.8 µM [inhibitor, single point]",,
c1cc(-c2n[nH]c(CNC3CCC4(CCNCC4)CC3)n2)ccn1,,,inactive: -6.66%
O=C(c1nc(-c2ccsc2)c2ccccn12)N1CCN(c2ncccn2)CC1,,,inactive: -27.1%
O=C(NC1CCN(c2cc(-c3ccccc3)[nH]n2)C1)c1ccccc1F (stereo not drawn),"inconclusive: 35.5 µM [inhibitor, partial curve]",,
COc1cccc(NC(=O)C2(C)CCCc3cnc(N(C)C)nc32)c1 (stereo not drawn),"inconclusive: 56.2 µM [inhibitor, partial curve, poor fit]",,
O=C1[C@H]2CN(Cc3ccc(Br)cc3)C[C@H]2C(=O)N1CCc1ccccc1,"inconclusive: 50.1 µM [inhibitor, partial curve, poor fit]",,
CS(=O)(=O)N1CCC(N2C(=O)C3(CCCCC3)C2c2ccccc2)CC1 (stereo not drawn),,,inactive: 3.19%
O=C1CC(c2ccccc2)N(Cc2ccncc2)CCCN(C(=O)c2cccs2)CCN1 (stereo not drawn),,,inactive: -16.1%
Cc1oc(-c2cccc(Cl)c2)nc1CN1CCN(C(=O)N(C)C)CC1,,,inactive: -22.9%
COCCN(CC1CCCN(C2Cc3ccccc3C2)C1)C(=O)c1cc(C)nn1C (stereo not drawn),,,inactive: -1.39%
COc1ccc(-c2cc3c(nc2OC)nc(CC2CC2)n3C)cc1,"inconclusive: 56.2 µM [inhibitor, partial curve, poor fit]",,
Cc1ccc2nc([C@H]3CCN(C4CCC4)C3)[nH]c2c1,"inconclusive: 126 µM [inhibitor, partial curve, poor fit]",,
CCCc1nnc(C[C@@H]2C[C@@H](C(C)C)[C@H](CN3CCC(CO)CC3)C=C2C)o1,"inconclusive: 126 µM [inhibitor, single point]",,
COc1ccc(N2Cc3c(NCCCc4ccccc4)ncnc3N(C)CC2=O)cc1,"inconclusive: 44.7 µM [inhibitor, partial curve, poor fit]",,
O=C([C@H]1CCCN1C(=O)c1ccccc1Cl)N1CCC(N2CCOC2=O)CC1,,,inactive: -7.7%
CC(C)CNC(=O)N1CCC(Cc2noc(C3CCOCC3)n2)C1 (stereo not drawn),,,inactive: -3.19%
CC(C)CCNC[C@H]1O[C@H](Cc2cc(-c3ccc(F)cc3)on2)CC[C@@H]1O,active: 50.1 µM,,

Compound,Potency,outcome,"activity change, negative = cytotoxicity"
CCCC(=O)N1CCC(Oc2cnc3c(ccn3-c3cncnc3)c2)CC1,active: 10 µM,,
O=C(Nc1cccc(Cl)c1)C1CN(c2ccccc2)C(=O)N1 (stereo not drawn),,,inactive: -11.9% [at 138 µM]
COc1ccc(CCCn2ccnc2-c2cn(C3CCNCC3)nn2)cc1,"inconclusive: 56.2 µM [inhibitor, partial curve, poor fit]",,
Cc1cccc(-c2cccc(CN3CCC(NC(=O)NC(C)C)CC3)c2)c1,"inconclusive: 44.7 µM [inhibitor, partial curve, poor fit]",,
COc1ccc(OCc2cc(C(=O)N(C)CC(O)CO)n[nH]2)c(Cl)c1 (stereo not drawn),,,inactive: -14.1%
CCCCCC(=O)Nc1nc2c(s1)C[C@@H]1[C@](C)(CO)[C@H](O)CC[C@@]1(C)[C@@H]2CC(=O)N(C)Cc1ccccc1,active: 50.1 µM,,
CN(C)C(=O)c1cc2c(s1)CCC(C(=O)Nc1ccc(F)c(Cl)c1)C2 (stereo not drawn),"inconclusive: 35.5 µM [inhibitor, partial curve, poor fit]",,
Cn1ncc2c(C(=O)Nc3ccccc3Cl)cc(-c3cccc(C(F)(F)F)c3)nc21,"inconclusive: 70.8 µM [inhibitor, single point]",,
COc1ccc(NC(=O)c2ccc3c(c2)OCCN(c2ccccc2)C3)cn1,"inconclusive: 8.91 µM [inhibitor, full curve, poor fit]",,
COc1ccccc1C(=O)N1CCCN(c2nnc3cccc(C)n23)CC1,,inactive,
CCCCNC(=O)c1ccc2c(c1)n(Cc1ccc(F)cc1)c(=O)c1ccnn12,"inconclusive: 31.6 µM [inhibitor, partial curve, poor fit]",,
CCCCCC(=O)N1C[C@H](C(=O)NC)[C@H]2c3ccccc3N(CC3CC3)C(=O)[C@]21C,"inconclusive: 28.2 µM [inhibitor, partial curve, poor fit]",,
c1ccc(-c2ccc3ncc(Nc4ccc5c(c4)OCCO5)n3n2)cc1,"inconclusive: 56.2 µM [inhibitor, partial curve, poor fit]",,
COc1ccc(C(=O)N2CCCN(C)c3ccccc32)c(C)c1,"inconclusive: 50.1 µM [inhibitor, partial curve, poor fit]",,
Cc1nc2c(c(-c3ccc(Cl)cc3)n1)CCN(C(=O)c1ccc(C(F)(F)F)cc1)CC2,"inconclusive: 50.1 µM [inhibitor, partial curve, poor fit]",,
C#CCN[C@@H]1C[C@@H]2c3[nH]c4ccccc4c3C[C@@H](C(=O)OC)N2[C@H](c2ccc(F)cc2)C1,"inconclusive: 17.8 µM [inhibitor, full curve, poor fit]",,
Cn1c(=O)cc(C(=O)NC2CCCc3c2[nH]c2ccccc32)c2ccccc21 (stereo not drawn),"inconclusive: 50.1 µM [inhibitor, partial curve, poor fit]",,
COc1ccc(NC(=O)c2nc3sccn3c2-c2ccc(C)cc2)cc1,,,inactive: -33.9%
Cc1cc(CN2CCc3nc(C(C)C)nc(-c4ccc(Cl)cc4)c3CC2)no1,"inconclusive: 70.8 µM [inhibitor, single point]",,
COC(=O)C1=C(C)N=C2SC=C(CC(=O)NCc3cccc(F)c3)N2C1c1ccccc1Cl (stereo not drawn),,,inactive: -20.4%
COc1ccccc1-n1c(=O)c(C(=O)N2CCN([S+](C)(=O)[O-])CC2)nc2cccnc21,,,inactive: -11.7%
Cn1cnc(S(=O)(=O)N[C@H]2CCN(C(=O)c3ccco3)[C@H](C(=O)N[C@@H](Cc3cccs3)C(N)=O)C2)c1,,,inactive: -17.1%
COc1cccc(Nc2ccnc(-c3nnc(C)n3C3CCCCC3)c2)c1,active: 89.1 µM,,

Compound,Potency,outcome,"activity change, negative = cytotoxicity"
CCNC(=O)Cc1c[nH]c2ncc(-c3cccnc3OC)cc12,active: 89.1 µM,,
CC(C)(C)C(=O)NCC1CCN(Cc2nc(-c3ccccc3)no2)C1 (stereo not drawn),,,inactive: -23.2%
CCNC(=O)c1cc2c(=O)[nH]c(-c3ccccc3)cn2n1,"inconclusive: 15.8 µM [inhibitor, partial curve, poor fit]",,
O=C(Nc1ccc(Cl)cc1)N1CCN(c2nc3ncccc3o2)CC1,"inconclusive: 56.2 µM [inhibitor, partial curve, poor fit]",,
O=C([C@H]1C[C@H](Oc2ccccc2)CN1C(=O)CC1CCCC1)N1CCOCC1,,,inactive: -25.5%
O=C(CCc1ccccc1)N1CCC2(CC1)N=C(c1cccc(Br)c1)NO2,"inconclusive: 70.8 µM [inhibitor, single point]",,
CN(C)Cc1cccc(-c2cc3c(ccn3Cc3ccncc3)c(N3CCOCC3)n2)c1,active: 39.8 µM,,
CS(=O)(=O)N1CCC(C2CCN(C(=O)NCCc3ccccc3)C2)CC1 (stereo not drawn),,,inactive: -13%
Cc1noc(-c2ccc(N3CCC(O)(c4cccnc4)CC3)nc2)n1,"inconclusive: 50.1 µM [inhibitor, partial curve, poor fit]",,
O=C(Nc1ccccc1F)N1CC2CCC(C1)N2Cc1ccccc1,,,inactive: -14.9%
CCOc1cc(C)c(CN2C[C@@H](CN(C)C)C[C@H](CO)C2)cc1C(C)C,active: 31.6 µM,,
Cc1nn2c(c1-c1ccccc1C(C)C)N(C(=O)c1cccc(C#N)c1)CCC2,"inconclusive: 25.1 µM [inhibitor, partial curve, poor fit]",,
COc1ccccc1Cn1c(=O)c(C(=O)NCCc2ccc(F)cc2)nc2cccnc21,"inconclusive: 70.8 µM [inhibitor, single point]",,
COc1cc(-c2nc(-c3c(C)noc3C)cc3cc(CN(C)C)oc23)ccn1,active: 39.8 µM,,
CC(=O)N1CCC(CC(=O)N2C[C@@H](Oc3ccccc3)C[C@H]2C(=O)N2CCOCC2)CC1,,,inactive: -9.87%
COc1ccc(OC)c(CN2CCC3(CC2)OCCN(Cc2ccccc2)C3=O)c1,"inconclusive: 56.2 µM [inhibitor, partial curve, poor fit]",,
Cn1cc(CN2C[C@@H](F)[C@@H](OCc3nc4ccc(C#N)cc4[nH]3)C2)c2ccccc21,active: 89.1 µM,,
CC(C)COc1cc(=O)n2c(c1C(=O)NCC1CCCCC1)CCCCC2,"inconclusive: 70.8 µM [inhibitor, single point]",,
CCOCCNc1ncnc2c1CN(c1cccc(C)c1)C(=O)CN2C,,,inactive: -25.3%
O=C(Cn1nc2n(c1=O)CCCCC2)Nc1ccc(Cl)cc1,,inactive,
Cn1nc(-c2cccc(F)c2)c(N2CCCCC2)c1NC(=O)NCc1ccccc1,active: 22.4 µM,,
C[S+](=O)([O-])N1CCN(c2ccc(C=O)cc2)C(=O)C1,,inactive [at 138 µM],
